Experimental findings from article PMC4336329 (PLoS ONE, 2015) are described below.

The whole screen tested about 310,000 compounds, of which about 14,000 (4.5%) showed an effect of 50% or more. The effect is printed as a negative number. Some of the results follow.
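Further: peak tail current of the secondary pulse compared with the same well before compound.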

The target in this assay is human ether-à-go-go-related gene (hERG) potassium channel (human, UniProt Q12809). The assay can be described thus: primary screen, population patch clamp on CHO cells stably expressing hERG.
Sequence of human ether-à-go-go-related gene (hERG) potassium channel (Q12809 whole entry, looked up): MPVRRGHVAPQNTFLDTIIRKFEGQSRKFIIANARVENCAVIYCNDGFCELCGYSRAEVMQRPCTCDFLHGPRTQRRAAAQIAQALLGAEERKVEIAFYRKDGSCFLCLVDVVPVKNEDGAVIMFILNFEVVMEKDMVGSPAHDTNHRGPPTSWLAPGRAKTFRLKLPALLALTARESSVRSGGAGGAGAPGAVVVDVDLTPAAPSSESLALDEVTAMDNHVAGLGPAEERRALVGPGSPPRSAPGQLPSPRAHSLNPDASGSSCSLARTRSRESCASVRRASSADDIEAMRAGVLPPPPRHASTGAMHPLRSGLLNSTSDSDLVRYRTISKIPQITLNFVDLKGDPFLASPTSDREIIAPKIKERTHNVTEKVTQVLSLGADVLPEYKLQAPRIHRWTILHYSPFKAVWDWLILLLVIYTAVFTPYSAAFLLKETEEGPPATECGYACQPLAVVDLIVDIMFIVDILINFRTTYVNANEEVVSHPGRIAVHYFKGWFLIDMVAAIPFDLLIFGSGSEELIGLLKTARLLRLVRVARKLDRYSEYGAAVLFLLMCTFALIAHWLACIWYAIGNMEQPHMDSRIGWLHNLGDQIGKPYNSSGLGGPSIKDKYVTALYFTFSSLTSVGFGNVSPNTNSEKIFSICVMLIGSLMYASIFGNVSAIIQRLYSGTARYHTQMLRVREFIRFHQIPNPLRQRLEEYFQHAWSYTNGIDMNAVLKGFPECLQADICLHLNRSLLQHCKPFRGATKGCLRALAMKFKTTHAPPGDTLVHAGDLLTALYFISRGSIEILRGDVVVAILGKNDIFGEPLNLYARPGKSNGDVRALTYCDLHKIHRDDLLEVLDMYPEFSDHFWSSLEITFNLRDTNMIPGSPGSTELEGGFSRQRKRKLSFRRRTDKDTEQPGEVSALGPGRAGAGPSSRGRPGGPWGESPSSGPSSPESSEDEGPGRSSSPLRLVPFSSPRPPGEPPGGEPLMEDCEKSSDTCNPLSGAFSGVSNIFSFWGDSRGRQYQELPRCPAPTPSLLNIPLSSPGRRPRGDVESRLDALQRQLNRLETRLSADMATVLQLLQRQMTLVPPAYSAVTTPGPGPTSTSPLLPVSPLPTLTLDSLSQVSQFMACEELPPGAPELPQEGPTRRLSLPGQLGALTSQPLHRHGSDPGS
Turning to `CCOC(=O)C1=C(N)OC2=C(C(=O)CC(C)(C)C2)C1c1ccc(CC)s1` (stereo not shown), the “hERG current change (%, negative = inhibition) at 10uM” value is listed as -7.5%.

For `O=c1[nH]c(SCCN2CCOCC2)nc(O)c1-c1ccccc1`, the “hERG current change (%, negative = inhibition) at 10uM” value came out at 13.2%.

`COc1cccc(-c2cc(C(F)(F)F)nc(NCc3ccco3)n2)c1`: the “hERG current change (%, negative = inhibition) at 10uM” value came out at 18.8%.

`Nc1c(N(Cc2ccccc2)C(=O)CCc2ccccc2)c(=O)[nH]c(=O)n1Cc1ccccc1`: the “hERG current change (%, negative = inhibition) at 10uM” value is given as -5.81%.

In the case of `Cc1ccc([C@@H]2[C@@H]3C(=O)N(C)C(=O)[C@@H]3[C@@H]3C(=O)Nc4ccccc4C(=O)N23)cc1`, the “hERG current change (%, negative = inhibition) at 10uM” value was -11%.

For `COc1ccc(C(O)c2nc3ccccc3s2)cc1` (stereo not shown), the “hERG current change (%, negative = inhibition) at 10uM” value stood at 6.16%.

Regarding `Cc1ccc(CNC(=O)c2ccc(N3CCC4(CC3)CC(c3cccc(Br)c3)=NO4)c(NC(=O)c3cccc(C)c3)c2)cc1`, the “hERG current change (%, negative = inhibition) at 10uM” value is 12.2%.

For the compound `Cc1sc2nc(C(C)C)nc(SCC(=O)N3c4ccccc4CC3C)c2c1C` (stereo not shown), the “hERG current change (%, negative = inhibition) at 10uM” value is on record as 15.6%.

With `O=C(CO)C(O)C(O)C(O)CO` (stereo not shown), the “hERG current change (%, negative = inhibition) at 10uM” value came to 8.48%.

Take `CC(=O)Nc1ccc(NC(=O)C2CCN(c3c(Cc4ccccc4)c(C)nc4ncnn34)CC2)cc1`: the “hERG current change (%, negative = inhibition) at 10uM” value was found to be 2.74%.

With `CC1CCCC(NC(=O)CN(C)S(=O)(=O)c2cccc3cccnc23)C1C` (stereo not shown), the “hERG current change (%, negative = inhibition) at 10uM” value is on record as -8.41%.

With `O=C(CNc1ccccc1C(=O)O)c1ccccc1`, the “hERG current change (%, negative = inhibition) at 10uM” value stood at 14.4%.

Take `Cc1cc(C(F)(F)Cl)n2ncc(-c3ccccn3)c2n1`: the “hERG current change (%, negative = inhibition) at 10uM” value is 7.26%.

As for `COC(=O)C1=C(O)/C(=C/c2cccc(OC)c2O)N=C1C`, the “hERG current change (%, negative = inhibition) at 10uM” value is 26.5%.

Consider `N#C/C(=C\c1ccc(O)c(O)c1)C(=O)NCc1ccccc1`, for which the “hERG current change (%, negative = inhibition) at 10uM” value is listed as -10.7%.

In the case of `O=C(c1cc(F)c(F)cc1Cl)N1CCN(c2ccc([N+](=O)[O-])c3ncccc23)CC1`, the “hERG current change (%, negative = inhibition) at 10uM” value is -67.4%.

For `CCOc1ccc2oc(C(=O)N(CC)CC(=O)Nc3ccc(NC(C)=O)cc3)c(C)c2c1`, the “hERG current change (%, negative = inhibition) at 10uM” value is given as -35.3%.

As to `COc1cc(/C=C2/NC(=O)N(Cc3ccccc3F)C2=O)cc(OC)c1OC`, the “hERG current change (%, negative = inhibition) at 10uM” value is listed as 14.8%.

With `O=C1C2C3C=CC(C4CC34)C2C(=O)N1c1cc(Cl)ccn1` (stereo not shown), the “hERG current change (%, negative = inhibition) at 10uM” value is recorded as 2.55%.

As for `CCOC(=O)N1CCN(C(=O)c2ccccc2NC(=O)COc2ccccc2C)CC1`, the “hERG current change (%, negative = inhibition) at 10uM” value is recorded as -16.2%.

As for `O=C(NN1CCOCC1)c1cc(-c2ccccc2)nc2ccccc12`, the “hERG current change (%, negative = inhibition) at 10uM” value was -8.03%.

Regarding `CCOC(=O)C1(Cc2cccc(OC)c2)CCN(Cc2ccc(OC)c(O)c2)CC1`, the “hERG current change (%, negative = inhibition) at 10uM” value is listed as -77.9%.

For `Cc1ccsc1/C=C/C1=NCCCN1C.O=C(O)C(O)C(O)C(=O)O`, the “hERG current change (%, negative = inhibition) at 10uM” value is given as 12.3%.

As to `N#CCCn1cc(/C=N/NC(N)=S)c(-c2ccc(Br)cc2)n1`, the “hERG current change (%, negative = inhibition) at 10uM” value is -36.4%.

As for `CCCCn1c(-c2cccc(F)c2)nc2c1c(=O)[nH]c(=O)n2CC(C)C`, the “hERG current change (%, negative = inhibition) at 10uM” value was found to be 9.57%.

For `CCc1nccn1CCC(=O)N1CCc2c([nH]c3ccccc23)C1CC(C)C` (stereo not shown), the “hERG current change (%, negative = inhibition) at 10uM” value is on record as -53.9%.

Turning to `O=[N+]([O-])c1ccc(OC/C=C2\Oc3ccc([N+](=O)[O-])cc3C2N2CCOCC2)cc1` (stereo not shown), the “hERG current change (%, negative = inhibition) at 10uM” value is -71.7%.

On to `O=C(Cc1ccccc1)NCC(=O)OCC(=O)c1ccc(OC(=O)c2ccccc2)cc1`, for which the “hERG current change (%, negative = inhibition) at 10uM” value came to 5.43%.

With `Cc1ccccc1NC(=S)Nc1ccc(Br)cc1`, the “hERG current change (%, negative = inhibition) at 10uM” value is -6.93%.

On to `O=C1CCC/C(=N\NC(=O)c2ccc(NS(=O)(=O)c3ccc(Br)cc3)cc2)C1`, for which the “hERG current change (%, negative = inhibition) at 10uM” value came to 7.87%.

Consider `COC(=O)c1ccc(-c2ccc(OC)c([C@H]3[C@H]4C=CC[C@@H](C)[C@@H]4C(=O)N3Cc3ccccc3)c2)cc1`, for which the “hERG current change (%, negative = inhibition) at 10uM” value is given as -5.98%.

As for `CCOc1ccc(CCNC(=O)CSc2cc(=O)n(CC)c3ccccc23)cc1OCC`, the “hERG current change (%, negative = inhibition) at 10uM” value is -4.11%.

Consider `Cc1cccc2c(=O)c(Br)c(C)n(Cc3ccccc3)c12`, for which the “hERG current change (%, negative = inhibition) at 10uM” value turned out to be 12.3%.

Regarding `Cc1c(Cl)cccc1NC(=O)CSC(N)=O`, the “hERG current change (%, negative = inhibition) at 10uM” value came out at 16.8%.

As to `O=C(NCCn1cc(SCc2ccccc2F)c2ccccc21)c1c(F)cccc1F`, the “hERG current change (%, negative = inhibition) at 10uM” value is on record as 11.1%.

Consider `O=S(=O)(c1cccc(-c2nnc(SCc3nc4ccccc4s3)o2)c1)N1CCOCC1`, for which the “hERG current change (%, negative = inhibition) at 10uM” value is -31.6%.

Take `CC(C)OC(=O)CSc1nc(Cc2ccccc2)nc2ccccc12`: the “hERG current change (%, negative = inhibition) at 10uM” value is on record as 6.28%.

Turning to `CC(C)Oc1ccc(OCCn2c(S(=O)(=O)O)nc3c(N)ncnc32)cc1`, the “hERG current change (%, negative = inhibition) at 10uM” value is recorded as 15.9%.

`O=C(Nc1nsc(-c2ccccc2)n1)c1cccs1`: the “hERG current change (%, negative = inhibition) at 10uM” value was -16.6%.

Consider `Cc1cccc(Oc2coc3cc(O)ccc3c2=O)c1`, for which the “hERG current change (%, negative = inhibition) at 10uM” value is listed as -11.8%.

Turning to `COc1cc(C(=O)Nn2c(CC(C)C)nc3ccccc3c2=O)cc(OC)c1OC`, the “hERG current change (%, negative = inhibition) at 10uM” value worked out at 10.6%.

For the compound `Cc1cccc(N2C(=O)/C(=C/c3ccc(CN(CCC#N)S(C)(=O)=O)o3)C(=O)NC2=S)c1`, the “hERG current change (%, negative = inhibition) at 10uM” value was 16.1%.

Regarding `O=C(CCCn1c(=S)[nH]c2cc3c(cc2c1=O)OCO3)N1CCN(c2ccc(F)cc2)CC1`, the “hERG current change (%, negative = inhibition) at 10uM” value is on record as -6.78%.
